Assay [1] deals with T1, GST-tagged C9orf72 long protein isoform (GST-C9L) (human) (UniProt Q96LT7).
T1 sequence: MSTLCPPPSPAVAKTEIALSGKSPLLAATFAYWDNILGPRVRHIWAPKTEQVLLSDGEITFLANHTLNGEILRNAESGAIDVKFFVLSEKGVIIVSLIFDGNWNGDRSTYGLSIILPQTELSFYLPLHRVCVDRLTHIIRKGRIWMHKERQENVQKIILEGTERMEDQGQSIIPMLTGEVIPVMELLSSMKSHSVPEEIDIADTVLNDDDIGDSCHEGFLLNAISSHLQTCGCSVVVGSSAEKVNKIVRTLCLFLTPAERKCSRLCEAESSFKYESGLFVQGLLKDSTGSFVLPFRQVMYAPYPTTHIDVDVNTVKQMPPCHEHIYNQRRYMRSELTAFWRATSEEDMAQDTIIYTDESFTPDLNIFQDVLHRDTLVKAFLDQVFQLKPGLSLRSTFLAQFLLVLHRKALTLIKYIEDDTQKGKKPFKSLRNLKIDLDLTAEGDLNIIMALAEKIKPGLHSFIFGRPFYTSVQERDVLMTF
The assay is described as follows: pull-down; 1 µg GST, GST-C9S or GST-C9L on glutathione magnetic beads, incubated with 1 mL WT HCT116 cell lysate up to 4 h at 4°C; washes with 400 mM NaCl, 0.6% Triton X-100; blots for GST and eIF2α; only the target purified.

Sequences of proteins named here, by UniProt entry; tags and fusion partners are left off.
UniProt P68101: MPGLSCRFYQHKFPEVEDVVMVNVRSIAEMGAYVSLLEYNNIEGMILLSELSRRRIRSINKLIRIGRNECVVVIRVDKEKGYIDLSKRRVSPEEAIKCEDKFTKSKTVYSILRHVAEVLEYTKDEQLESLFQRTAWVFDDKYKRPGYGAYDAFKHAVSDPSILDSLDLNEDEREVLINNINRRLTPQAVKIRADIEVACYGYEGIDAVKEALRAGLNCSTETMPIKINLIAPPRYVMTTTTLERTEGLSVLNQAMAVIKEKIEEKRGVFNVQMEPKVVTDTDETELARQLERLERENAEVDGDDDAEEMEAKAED
UniProt P05198: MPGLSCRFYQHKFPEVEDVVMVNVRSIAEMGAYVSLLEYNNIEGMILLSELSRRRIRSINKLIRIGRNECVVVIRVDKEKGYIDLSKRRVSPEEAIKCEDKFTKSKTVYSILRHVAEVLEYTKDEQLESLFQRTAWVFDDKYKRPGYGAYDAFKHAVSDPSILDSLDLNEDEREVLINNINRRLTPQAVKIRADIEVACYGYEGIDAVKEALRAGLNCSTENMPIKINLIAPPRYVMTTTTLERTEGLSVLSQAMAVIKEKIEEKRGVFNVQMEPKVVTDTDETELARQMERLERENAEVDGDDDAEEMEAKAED

The target in assay [2] is T2, GST-tagged C9orf72 short protein isoform (GST-C9S) (human) (UniProt Q96LT7).
T2 sequence: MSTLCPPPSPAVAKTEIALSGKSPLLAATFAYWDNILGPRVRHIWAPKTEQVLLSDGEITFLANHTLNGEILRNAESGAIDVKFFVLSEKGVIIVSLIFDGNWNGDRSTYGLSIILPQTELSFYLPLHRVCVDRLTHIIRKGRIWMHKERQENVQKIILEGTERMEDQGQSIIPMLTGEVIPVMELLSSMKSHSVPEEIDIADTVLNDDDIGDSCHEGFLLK
The description is as above.

Assay [3] has as its target T3, Flag-tagged C9orf72 long isoform (Flag-C9L) (human) (UniProt Q96LT7).
T3 sequence: T1 sequence
The assay is described as follows: co-IP; lysates of HeLa cells overexpressing Flag, Flag-C9S, Flag-C9T or Flag-C9L, under basal conditions or SA stress (0.5 h, 0.2 mM SA) with or without 1 h recovery; Flag antibody on Protein A/G magnetic beads; blots for Flag, eIF2α, p62.

Assay [4] concerns the target T4, Flag-tagged C9orf72 short isoform (Flag-C9S) (human) (UniProt Q96LT7).
T4 sequence: T2 sequence
The assay is described as above.

Assay [5] deals with T5, Flag-C9orf72 (long isoform) (human) (UniProt Q96LT7).
T5 sequence: T1 sequence
The assay can be described thus: co-IP; immunoprecipitation of Flag-C9orf72; eIF2α and eIF2B5 looked for in the precipitate (Figure S6; cell line not shown).

Assay [6] has as its target T5, Flag-C9orf72 (long isoform) (human). The assay can be described thus: co-IP; lysates of HEK-293T cells overexpressing Flag-tag or Flag-C9orf72 (long isoform); Flag antibody on Protein A/G magnetic beads; blots for Flag and eIF2α.
The target in assay [7] is eIF2α, endogenous in rat cerebral cortex and spleen (rat (endogenous in Sprague-Dawley rat tissue)) (UniProt P68101). The assay can be described thus: co-IP; endogenous eIF2α precipitated from cerebral cortex or spleen lysates of WT or C9orf72-null (KO-7, KO-16) rats with an eIF2α antibody on Protein A/G magnetic beads; blots for C9orf72 or eIF2B5.
Assay [8] concerns the target eIF2α, endogenous in HCT116 (human (endogenous in HCT116)) (UniProt P05198). The assay can be described thus: co-IP; endogenous eIF2α or p-eIF2α (S51) precipitated from WT or C9orf72-/- (H1-3, 63-1) HCT116 lysates with an eIF2α or p-eIF2α (S51) antibody on Protein A/G magnetic beads; blot for C9orf72.
Assay [9] has as its target p-eIF2α (S51), endogenous in HCT116 (human (endogenous in HCT116)) (UniProt P05198). The assay is described as above.

Results are given in words; binding and its absence hold for the method and conditions named. Binding seen in cells or lysates may run through a third protein. Some results given as binding are weak or reduced against the parent protein; the word gives no strength. For some assays here: Tags and fused reporters may be left off the sequences shown.

With “eIF2α, endogenous in HCT116 (from UniProt P05198 1-315)”, the binding result in assay [1] and in assay [2] was “binds” throughout.

With “eIF2α, endogenous in HeLa (from UniProt P05198 1-315)”, the binding result in [3] and in assay [4] was “binds” throughout.

For the molecule “eukaryotic initiation factor 2 subunit alpha (eIF2α), endogenous in HEK-293T (from UniProt P05198 1-315)”, the binding entry in assay [5] and in [6] was “binds” in each case.

Consider “p62, endogenous in HeLa (from UniProt Q13501 1-440)”, for which the binding result in [4] was “no binding”.

B1: C9orf72 (rat C9orf72 ortholog, RGD1359108), endogenous in rat cerebral cortex and spleen (protein, UniProt Q66HC3 1-481)
chain: MSTICPPPSPAVAKTEIALSGESPLLAATFAYWDNILGPRVRHIWAPKTDQVLLSDGEITFLANHTLNGEILRNAESGAIDVKFFVLSEKGVIIVSLIFDGNWNGDRSTYGLSIILPQTELSFYLPLHRVCVDRLTHIIRKGRIWMHKERQENVQKIVLEGTERMEDQGQSIIPMLTGEVIPVMELLASMRSHSVPEDLDIADTVLNDDDIGDSCHEGFLLNAISSHLQTCGCSVVVGSSAEKVNKIVRTLCLFLTPAERKCSRLCEAESSFKYESGLFVQGLLKDATGSFVLPFRQVMYAPYPTTHIDVDVNTVKQMPPCHEHIYNQRRYMRSELTAFWRATSEEDMAQDTIIYTDESFTPDLNIFQDVLHRDTLVKAFLDQVFHLKPGLSLRSTFLAQFLLILHRKALTLIKYIEDDTQKGKKPFKSLRNLKIDLDLTAEGDLNIIMALAEKIKPGLHSFIFGRPFYTSVQERDVLMTF
Consider B1, for which the binding entry in assay [7] is given as “binds”.

B2: C9orf72, endogenous in HCT116 (protein, UniProt Q96LT7 1-481)
chain: T1 sequence
In the case of B2, the binding entry in [8] and in [9] was “binds” each time.

B3: eIF2B5, endogenous in rat cerebral cortex and spleen (protein, UniProt Q64350 1-716)
chain: MAATAAVPSAVGGRANKRGGGSGGGGTQGAEEEPPPPLQAVLVADSFDRRFFPISKDQPRVLLPLANVALIDYTLEFLTATGVQETFVFCCWKAAQIKEHLQKSKWCHPTSLNVVRIITSDLYRSLGDVLRDVDAKALVRSDFLLIYGDVVSNINISKALEEHRLRRKLEKNVSVMTMVFKESSPSHPTRCHEDNVVLAVDSTTNRILHFQKTQGLRHFSFPLGLFQGSLDGVEIRYDLLDCHISICSPQVAQLFTDNFDYQTRDDFVRGLLVNEEILGNQIHLHVTSREYGARVSNLHMYSAVCADVIRRWVYPLTPEVNFTDSSTQSYTHSRHNIYRGPEVSLGHGSVLEENVLLGAGTVVGSNCSITNSVIGPNCHIGDNVVLDQAYLWQGVRVAAGAQIHQSLLCDRAEVKERVILKPHCVLTSQVVVGPDIILPEGSVISLHPPDAEEDEDDGQFSDDSGADQEKEKVKLKGYNPAEVGPEGQGYLWKAEDVDEKEDEELRQSLWGLMINMEEESETESERSVDPEELDSRAGSPQLDDIRVFQNEVLGTLQRGREENISCDNLVLEINSLKYAYNISLKEVMQVLSHVVLEFPLQQVDGVLDPNRYCALLLPLLKAWSPVFRNYIKRAADHLEALAAIEDFFLEHETLVPSLAKVLMAFYQLEILAEETILSWFSQRDITDKGQQLRKNQQLQRFIQWLREAEEESSDDD
Take B3: the binding result in assay [7] was “binds”.

For the origin of these results see paper PMC9691347, “C9orf72 regulates the unfolded protein response and stress granule formation by interacting with eIF2α” (Theranostics, 2022).
